# According to PubChem BioAssay AID651820 (National Center for Advancing Translational Sciences (NCATS), 2012):
# Among all 340,000 compounds or so, about 12,000 (3.5%) were called active. Inconclusive results, whose numbers are uncertain, are shown with a selection of clear calls. Calls come from the whole dose curve; as a rule, active = well fitted inhibition curve with a large enough effect; inconclusive = small, poorly fitted or top-dose-only effect, or another doubt; inactive = no such curve, though single readings can be large or run the other way. Potencies of inconclusive entries are left out as doubtful fits. Some compounds were tested as several samples or in several runs, with calls that do not always agree.
# Test: qHTS Assay for Inhibitors of Hepatitis C Virus (HCV)
# Conditions: Huh7.5.1 HCVcc-Cre (HCVcc is cell-culture hepatitis C virus) infection, luciferase reporter, 44 h; activity change, negative = inhibition: at 41.8 µM (top of the series)
# Summary of the method: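 Cells seeded at 1,000/well and cultured 4 h, then compounds added followed by HCVcc-Cre virus (~0.5 moi). After 44 h further culture, luciferase substrate was added, plates held 15 min at room temperature, and luminescence read for 15 sec.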
# % is set by controls: 0 for no effect and ±100 for the full control effect; potency is the fitted concentration of half-maximal effect; tags give direction and shape of the fitted curve.
SMILES,"activity change, negative = inhibition",Potency
O=c1oc2ccc(C#CC3(O)CCCCC3)cc2cc1-n1cc(-c2ccsc2)nn1,inactive: 6.15%,
CCN(CC)c1ccc(Nc2nc(N3CCOCC3)c3ccccc3n2)cc1,,active: 4.47 µM
CCC(=O)N1CCN(c2ccccc2NC(=O)COc2cc(C)ccc2C(C)C)CC1,,active: 10 µM
CC1CN(c2cc3nccnc3cc2F)CC(C)O1 (centres undefined),,"inconclusive [inhibitor, single point]"
O=C1[C@H](Cc2ccccc2)NCCCC[C@H](c2ccco2)N1Cc1ccccc1,,"inconclusive [inhibitor, partial curve, poor fit]"
CC(/C=N\N1CCN(Cc2ccc(C)cc2)CC1)=C\c1ccccc1,,"inconclusive [inhibitor, single point]"
O=C(CN1CCN(c2ccc(F)cc2)CC1)Nc1ccccc1C(=O)NCCc1ccccc1,,"inconclusive [inhibitor, single point]"
CC1(C)C(=O)NCCN1C(=O)CSc1nccc(-c2ccc(Br)cc2)n1,,"inconclusive [inhibitor, full curve]"
COc1ccc(N2CCN(S(=O)(=O)c3ccc(-n4cnnn4)c(C)c3)CC2)cc1,inactive: 10.7%,
O=C(Nc1ccc(-c2noc(CCc3ccccc3)n2)cc1)c1cccnc1,,active: 11.2 µM
Cc1cccc(Nc2cc(C)c3c(O)cccc3n2)c1C,,"inconclusive [inhibitor, single point]"
CS(=O)(=O)c1ccccc1-c1nc(-c2cccc(Cl)c2)no1,inactive: -19.3%,
C[C@H](CO)N1C[C@H](C)[C@@H](CN(C)Cc2ccc(C(=O)Nc3ccccc3N)cc2)Oc2c(NC(=O)C3CCCCC3)cccc2C1=O,,"inconclusive [inhibitor, single point]"
Cc1ccc(-n2c(C)cc(C(=O)CSc3n[nH]c(N)n3)c2C)cc1,,"inconclusive [inhibitor, partial curve]"
CCN(CC)c1ccccc1,inactive: 1.23%,
CC(C)N(C(=O)[C@H]1CC(CC(=O)NC(C)(C)C)C(=O)N2CCc3c([nH]c4ccccc34)[C@]12C)C(C)C (some centres undefined),,"inconclusive [inhibitor, single point]"
Cc1ccc(CN2CCCC(C(=O)c3cccc(C(F)(F)F)c3)C2)o1 (centres undefined),,"inconclusive [inhibitor, partial curve, poor fit]"
COC(=O)c1sccc1NC(=O)CSc1ccccc1NS(=O)(=O)c1ccc(Br)cc1,,"inconclusive [inhibitor, single point]"
Cc1ccc2c(CNCc3ccccc3)cc(=O)oc2c1,inactive: -15.1%,
COc1ccccc1CNC(=O)COC(=O)COc1ccccc1Cc1ccccc1,inactive: 2.23%,
CCCCN(C)C(=O)C1CCC(CNS(=O)(=O)c2ccc3c(c2)CC(C)N3C(=O)C2CC2)CC1 (centres undefined),,"inconclusive [inhibitor, single point]"
Nc1ccc2c(c1)C(=NO)c1cc([N+](=O)[O-])ccc1-2,,"inconclusive [inhibitor, partial curve]"
O=C(O)CCC1OC(=O)C(O)=C1c1ccccc1 (centres undefined),inactive: 11.7%,
O=C(COC(=O)CNC(=O)c1ccc(Cl)cc1Cl)NNC(=O)c1ccccc1F,inactive: 20.4%,
Cc1ccc(S(=O)(=O)N2CCOC23CCN(S(=O)(=O)c2c(C)cc(C)cc2C)CC3)cc1,,"inconclusive [inhibitor, single point]"

SMILES,"activity change, negative = inhibition",Potency
CCCN(CCC)CCNC(=O)CS(=O)Cc1nc(-c2ccc(C)cc2)oc1C (centres undefined),,"inconclusive [inhibitor, partial curve]"
Cc1cc(C)c2c(=O)n(CC(=O)N3CCC(N4CCCCC4)CC3)sc2n1,inactive: 15.3%,
N#CCNC1CC(=O)N(c2ccc(F)cc2)C1=O (centres undefined),inactive: -5.74%,
O=C1Nc2ccccc2/C1=C/c1ccccc1F,,"inconclusive [inhibitor, single point]"
COC(=O)[C@@]1(Cc2ccccc2)[C@@H]2C(=CC(=O)[C@H]2CC(=O)C(=O)N(C)C)CN1C(=O)c1ccccc1,,"inconclusive [inhibitor, partial curve]"
O=C(Nc1ccccc1C(=O)NC1CC1)c1ccc([N+](=O)[O-])o1,,"inconclusive [inhibitor, single point]"
Cc1c(C#N)c(=O)c(-[n+]2ccccc2)c([S-])n1-c1ccc(Cl)cc1,inactive: 1.97%,
Cc1coc2c(O)cc3c(c12)OC1(N2CCCCC2)C(=O)NCCCC31 (centres undefined),,"inconclusive [inhibitor, single point]"
O=C1C=C(O)c2[nH]c(=O)ccc2C1=O,inactive: 23.7%,
Nc1ccc2nc3c(=O)n(CCc4ccccc4)c(=O)[nH]c3nc2c1,,"inconclusive [inhibitor, full curve, poor fit]"
COC(=O)c1[nH]c2ccc(Br)cc2c1NC(=O)CN1CCCc2ccccc21,,"inconclusive [inhibitor, partial curve]"
CN(c1ccccc1)S(=O)(=O)c1cccc(NC(=O)CSc2ncn[nH]2)c1,,"inconclusive [inhibitor, partial curve]"
O=C(CCCn1c(=S)[nH]c2cc3c(cc2c1=O)OCO3)N1CCN(c2ccccc2F)CC1,,"inconclusive [inhibitor, single point]"
Cn1c(CCN2CCCCC2)nc2cc(NS(=O)(=O)c3ccccc3)ccc21,inactive: -6.27%,
CCOc1ccc(NC(=S)NC(=O)c2c(Br)cnn2C)c([N+](=O)[O-])c1,,"inconclusive [inhibitor, single point]"
Cc1ccc(S(=O)(=O)N(C)C)cc1NC(=O)C(C)Sc1ccccc1 (centres undefined),inactive: -10.5%,
CCOc1ccc(-n2nc3ccc(NC(=O)CC)cc3n2)cc1,,"inconclusive [inhibitor, single point]"
O=C(Nc1ccncc1)c1ccc(NS(=O)(=O)c2cccc(F)c2)cc1,inactive: 17.7%,
Cc1ccc(NC(=O)[C@@H]2CCC(=O)N2C2OC(=O)c3ccccc32)cc1Cl (some centres undefined),inactive: -20.1%,
COc1ccc(NC(=O)CN(C)CC(=O)Nc2ccc(Cl)cc2F)cc1,,"inconclusive [inhibitor, single point]"
COc1cc2c(cc1NC(=O)CSc1cccc[n+]1[O-])oc1ccccc12,,"inconclusive [inhibitor, partial curve]"
CCC(=O)N(Cc1cc2cc(OC)ccc2[nH]c1=O)c1ccc(C)cc1C,,"inconclusive [inhibitor, single point]"
CC(C)COc1ccc(C/C(N)=N/n2cnnc2)cc1,,active: 14.1 µM
CC(C)N1CCC(N2CCN(Cc3ccc4nonc4c3)CC2CCO)CC1 (centres undefined),,"inconclusive [inhibitor, single point]"
Cc1ccc2nc(NCCNC(=O)c3ccccc3)c(C#N)cc2c1,,"inconclusive [inhibitor, single point]"

SMILES,"activity change, negative = inhibition",Potency
CC[C@@H](C)[C@H](CN[C@H](CNC)C(C)C)NC[C@@H](C)c1ccc(CC(C)C)cc1,,"inconclusive [inhibitor, single point]"
COc1ccccc1/C=C/C=N/n1c(C)nnc1C,,"inconclusive [inhibitor, single point]"
CC(C)(C)C(=O)O/N=C(\N)Cc1ccc(-c2csnn2)cc1,inactive: 17.3%,
Cc1[nH]c2ccccc2c1/C=N/Nc1nc(Nc2ccc(F)cc2)nc(N2CCOCC2)n1,,active: 8.91 µM
O=C(CSc1nnc(CN2CCCC2)n1-c1ccccc1)c1ccc2c(c1)OCO2,inactive: -19.4%,
Cc1cc(-c2ccccc2)c2c(n1)sc1c(O)cc(=O)[nH]c12,inactive: -1.27%,
CCN1CCN(CCCNC(=O)c2cc3cc4ccc(OC)cc4nc3o2)CC1,,"inconclusive [inhibitor, single point]"
COc1ccc(-c2ccc(SCC(=O)N3CCCC3)nn2)cc1OC,,"inconclusive [inhibitor, single point]"
CS(=O)(=O)N(CC(=O)N1CCN(Cc2ccccc2)CC1)c1cccc(F)c1,inactive: 4.28%,
C#CCOCCOCCOCCNc1nc(N2CCN(C(=O)[C@H](CCC(=O)O)n3cc(C(N)CC(C)C)nn3)CC2)nc(N2CCN(C(=O)[C@H](CCC(=O)O)n3cc(C(N)[C@H](C)CC)nn3)CC2)n1 (some centres undefined),inactive: 8.32%,
CC(=O)c1c(C)oc2c1C(=O)c1ccccc1C2=O,,active: 8.91 µM
Cc1nc2cc(NC(=O)NCc3ccco3)ccc2n1C,inactive: 13.4%,
COCCNC(=O)c1onc(CSc2nc3ccccc3[nH]2)c1C(=O)NCCOC,inactive: -2.39%,
CSc1snnc1-c1ccccc1,inactive: 11.8%,
CC1=CC2=NC(=O)/C(=C\c3cccn3CCOc3cc(C)ccc3C)C(=N)N2O1,,"inconclusive [inhibitor, single point]"
NS(=O)(=O)c1ccc(NC(=O)CN2CCN(S(=O)(=O)c3cccs3)CC2)cc1,inactive: 13.9%,
CCc1nc(SCCO)c2oc3ccccc3c2n1,,active: 10 µM
CN(C)CC[C@@H](c1ccc(Br)cc1)c1ccccn1,,"inconclusive [inhibitor, single point]"
O=C(NC(=S)Nc1ccc([N+](=O)[O-])cc1O)C1CCCCC1,inactive: -20.6%,
COC(=O)c1ccc(-c2csc(NC(=O)c3c(C)noc3C)n2)cc1,,"inconclusive [inhibitor, single point]"
CCOC(=O)c1ccc(C(=O)OCC)nc1,inactive: 0.936%,
O=C(O)CCc1ccc(-c2ccccc2)n1NC(=O)c1cccs1,inactive: 14.9%,
O=c1[nH]c2ccccc2c2nc3ccccn3c12,,"inconclusive [inhibitor, single point]"
C/C(=N\NC(=O)c1cccc(F)c1)c1ccc(Br)s1,inactive: -26.5%,
